PubChem BioAssay AID1645882 (National Center for Advancing Translational Sciences (NCATS), 2021)
About 120 (0.75%) of roughly 16,000 compounds were called active. Inconclusive results (about 4%) are left out. Calls follow the shape of the dose curve; as a rule, active = well fitted inhibition curve with a large enough effect; inconclusive = small, poorly fitted or top-dose-only effect; inactive = no such curve, though single readings can be large or run the other way. The list shows a part of the results.

What follows are compounds tested against Rap guanine nucleotide exchange factor 3 (Homo sapiens) (UniProt O95398) (assay: Validation qHTS for antagonist of cAMP-regulated guanine nucleotide exchange factor 3 (EPAC1)). Settings: EPAC1 Rap1B-BODIPY-GDP exchange, fluorescence; series mostly up to 150 µM; activity change, negative = inhibition: at the top concentration.
Summary of the method: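 EPAC1 (100 nM) mixed with 250 nM RAP1B-BODIPY-GDP and 50 uM GDP; compounds in concentration series, 5 min at room temperature. Fluorescence (ex 480/em 540 nm) read every 5 min for 30 min; normalized to ATA control and DMSO.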
Also: nearly all actives have a fitted effect of over 75% in size.

Chain of UniProt O95398 (O95398 whole entry, looked up): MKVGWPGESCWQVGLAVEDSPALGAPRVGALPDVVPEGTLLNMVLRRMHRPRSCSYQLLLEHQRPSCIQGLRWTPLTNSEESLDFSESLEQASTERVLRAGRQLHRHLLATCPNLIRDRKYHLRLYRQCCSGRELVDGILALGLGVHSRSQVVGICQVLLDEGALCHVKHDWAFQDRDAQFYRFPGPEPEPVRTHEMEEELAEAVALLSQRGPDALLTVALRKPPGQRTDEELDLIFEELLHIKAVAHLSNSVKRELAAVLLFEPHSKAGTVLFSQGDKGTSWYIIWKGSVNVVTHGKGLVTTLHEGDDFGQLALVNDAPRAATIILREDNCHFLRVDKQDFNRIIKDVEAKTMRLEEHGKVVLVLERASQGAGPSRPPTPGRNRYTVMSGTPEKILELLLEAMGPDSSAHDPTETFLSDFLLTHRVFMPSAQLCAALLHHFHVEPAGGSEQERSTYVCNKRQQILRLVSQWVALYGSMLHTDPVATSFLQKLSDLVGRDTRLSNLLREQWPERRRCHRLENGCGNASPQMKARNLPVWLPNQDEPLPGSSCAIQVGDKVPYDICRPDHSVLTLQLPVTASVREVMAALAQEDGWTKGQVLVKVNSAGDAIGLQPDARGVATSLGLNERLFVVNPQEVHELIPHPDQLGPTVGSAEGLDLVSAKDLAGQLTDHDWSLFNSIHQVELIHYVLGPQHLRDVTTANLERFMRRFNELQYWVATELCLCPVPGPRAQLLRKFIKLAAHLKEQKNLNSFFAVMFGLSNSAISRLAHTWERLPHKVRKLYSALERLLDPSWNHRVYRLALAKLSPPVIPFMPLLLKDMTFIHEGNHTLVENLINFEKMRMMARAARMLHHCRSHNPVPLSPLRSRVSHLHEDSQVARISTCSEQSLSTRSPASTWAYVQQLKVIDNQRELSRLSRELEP

Activity change, negative = inhibition, inactive:
Cc1oncc1C(=O)Nc1ccc(C(F)(F)F)cc1
O=c1[nH]c2cc(C(F)(F)F)c(N3CCOCC3)cc2n(CP(=O)(O)O)c1=O 14.5%
Nc1ccn(C2CO[C@H](CO)O2)c(=O)n1 (stereo not given in full) 184%
CN(C)c1ccc(C=O)cc1[N+](=O)[O-] 1.83%
O=C(O)c1cccnc1Nc1cccc(C(F)(F)F)c1
OCc1ccccc1O[C@H]1OC(CO)C(O)C(O)C1O (stereo not given in full) 7.04%
Cc1noc(C)c1-c1nc(N(C)C)c2ccccc2n1 9.74%
CC(C)c1nc(C(=O)N2CCOc3ccc(CN4CCN(c5ccccn5)CC4)cc3C2)cs1 13%
Cc1cc(C)c(C(=O)NCc2nc(-c3cccc(NC(=O)C4CCCN(C)C4)c3)oc2C)[nH]1 (stereo not given) 22%
COc1ccccc1CNc1cc(-c2c(C)noc2C)ncn1 -9.34%
CCOC(=O)C[C@H]1c2ccc(C(F)(F)F)cc2S(=O)(=O)N1Cc1ccccc1 -6.92%
O=c1ccc2ccc(O)cc2o1 1.97%
COc1cccc(Cn2c(=O)c(-c3cccs3)nc3cnc(N4CCNCC4)nc32)c1 -5.31%
CCCCCC[C@@H]([C@@H](C)O)n1cnc2c(N)ncnc21
CC1C(=O)OC2C(O)C34C5CC(C(C)(C)C)C36C(OC(=O)C6O)OC4(C(=O)O5)C12O (stereo not given) 2.22%
C[N+](C)(C)CCCCCC[N+](C)(C)C
CC[N+](C)(C)Cc1ccccc1Br 4.01% [at 75.8 µM]
CCCCCCCCc1ccc(-c2ccc(C(=O)O)cc2)cc1 6.32% [at 75.8 µM]
COc1ccc(C(=O)NCC2Cc3cc(F)cc(-c4cncnc4)c3O2)cc1 (stereo not given) -1.25%
Cc1cc(O)c(C=O)c2c1C(=O)Oc1c(C)c(O)c3c(c1O2)C(O)OC3=O (stereo not given) -23.6%
CN1C(C)(C)CCCC1(C)C 6.47%
O=c1[nH]c(=O)n(C2CC(O)C(CO)O2)cc1C(F)(F)F (stereo not given) 6.21%
CCCCc1c(C)[nH]c2c(OC)cccc2c1=S 12.9%
COc1ccc(CNc2ccnc(-c3ccc(C(=O)N(C)C)cc3)n2)c(OC)c1 3.57%
N[C@@H](CCC(=O)N[C@H](CSN=O)C(=O)NCC(=O)O)C(=O)O 10.8% [at 75.8 µM]
C[C@@H]1C[C@H]2[C@@H]3CCC4=CC(=O)C=C[C@]4(C)[C@@]3(F)[C@@H](O)C[C@]2(C)[C@@]1(O)C(=O)COC(=O)c1cccc(S(=O)(=O)O)c1 20.2%
CCCCCCCCCCCCCC(=O)N[C@@H](C)[C@H](O)c1ccccc1 13.7% [at 15.3 µM]
Cc1cc(NC(=O)Nc2ccc(N(C)C)cc2)c2cc(F)cc(F)c2n1 -16.4%
Cc1onc(-c2c(Cl)cccc2Cl)c1C(=O)N[C@@H]1C(=O)N2[C@@H]1SC(C)(C)[C@@H]2C(=O)O 48.7%
COCCn1c(=O)c(-c2cccc(C#N)c2)nc2cnc(N3CCOCC3)nc21 13.6%
COc1cc(OC)c(C(C)=O)c(O)c1C 21%
OC[C@H]1O[C@@H](n2cnc3c2NC=NC[C@H]3O)C[C@@H]1O 2.97%
N#CCCn1c(=O)c(-c2ccc(Cl)cc2)nc2cnc(Oc3cccc(Cl)c3)nc21 17.9%
CC1(C)Oc2ccc(C#N)cc2[C@@H](N2CCCC2=O)[C@@H]1O 18.7%
CCCCC(=O)O[C@@]1(C(=O)CO)C(C)CC2C3CCC4=CC(=O)C=C[C@@]4(C)[C@]3(F)C(O)C[C@]21C (stereo not given in full) -4.05%
COc1cccc(Cn2c(=O)c(-c3ccc(Cl)cc3)nc3cnc(OC)nc32)c1 5.04%
CNc1ncncc1-c1ccc(C(=O)N(C)C)cc1 20.2%
CCNc1ncc2nc(-c3cccc(C#N)c3)c(=O)n(Cc3cccc(OC)c3)c2n1 -10.8%
CN[C@@H]1[C@@H](O)[C@@H](O[C@@H]2[C@@H](O)[C@H](OC3OC(CN)=CCC3N)[C@@H](N)C[C@H]2N)OC[C@]1(C)O (stereo not given in full) 1.86% [at 75.8 µM]
Nc1nc2c(ncn2[C@@H]2O[C@H](CO)[C@@H](O)[C@H]2O)c(=O)[nH]1 -17.4%
CCn1ccnc1C[C@@H]1COc2ccccc2O1 -5.15%
NCCNCCNCCNCCN 7.97%
CN(C)c1ccnc(-c2ccccc2C(F)(F)F)n1 21.3%
CCOC(=O)N1CCN(Cc2ccc3c(c2)CN(C(=O)c2sc(C)nc2C)CCO3)CC1 17.3%
COc1ccccc1CNc1ncncc1-c1ccccc1C 3.8%
Cc1ccccc1-c1cncnc1NCc1cccs1 9.25%
CN1CCc2cc(O)c(O)cc2C(c2ccccc2)C1 (stereo not given) 5.8% [at 75.8 µM]
COC(=O)[C@@H](c1ccccc1Cl)N1CCc2sccc2C1 19%
CC(=O)OC1C=C[C@]2(C)C(CC(OC(C)=O)[C@@]3(C)C4=CC(=O)OC(c5ccoc5)[C@]4(C)CCC23)C1(C)C (stereo not given in full) -21.4%
CCNc1ncc2ncc(=O)n(C3CC3)c2n1 11.4%
CC(=O)SC1CC2=CC(=O)CC[C@@]2(C)C2CC[C@@]3(C)[C@@H](CC[C@@]34CCC(=O)O4)C12 (stereo not given in full) -0.645%
C[C@H]1O[C@H](O[C@H]2[C@H](O)[C@@H](O)[C@@H](O[C@H]3[C@H](O)[C@@H](O)[C@H](O)O[C@@H]3CO)O[C@@H]2CO)[C@H](O)[C@@H](O)[C@@H]1N[C@H]1C=C(CO)[C@@H](O)[C@H](O)[C@H]1O 17%
Cc1cc2c(cc1S(N)(=O)=O)S(=O)(=O)CCC2 7.15% [at 75.8 µM]
O=S1(=O)[C@H]2C[C@@H]3C=C[C@@]2(CN1Cc1cccc(Cl)c1)O3 5.85%
COc1ccc(C(=O)N2CCC[C@@]3(CCN(c4cccc(-c5ccccc5)c4)C3)C2)cc1 -4.49%
CSc1nc(C(=O)NCc2nc(-c3cccc(NC(=O)c4ccccn4)c3)oc2C)cs1 2.23%
CN(C)c1ccc(/C=C2\C(=O)/C(=C\c3ccc(N(C)C)cc3)c3ccccc32)cc1 -17.1%
COc1ccccc1CNc1ccnc(-c2c(C)noc2C)n1 4.36%
O=C(NCCN1Cc2ccccc2OC(c2ccsc2)C1)c1ccc2[nH]ccc2c1 (stereo not given) 5.76%
CCCCCc1ccc(-c2cn(CC3CCCCC3)nn2)cc1 23.4%
Cc1cc(-c2ccnc(-n3ncc(C(=O)N4CCCCC4c4cccnc4)c3C3CC3)n2)c(C)s1 (stereo not given) 6.63%
COc1ccc(-c2nc3cnc(Nc4cccc(OC)c4)nc3n(C[C@H]3CCCO3)c2=O)cc1 12.5%
CCNc1ncc2nc(-c3cn(C)c4ccccc34)c(=O)n(Cc3cccc(OC)c3)c2n1 17.1%
Cc1ncc2c(c1CNC(=O)/C=C/c1cccs1)CCN(C(=O)c1ccc3c(c1)OCCO3)C2 6.54%
CCN1CCCC1CNC(=O)c1cnn(-c2nccc(-c3cccs3)n2)c1C1CC1 (stereo not given) 10.6%
O=c1c(-c2ccc(F)cc2)nc2cncnc2n1Cc1ccccc1 -12.8%
N/C(=N\N=C\c1ccc(Cl)cc1)N/N=C/c1ccc(Cl)cc1 9.26%
COc1ccc(NC(=O)N2CC[C@@]3(CCCN(C(=O)c4csnn4)C3)C2)cc1 17.3%
Cc1cnc(CNc2ncncc2-c2ccccc2C(F)(F)F)cn1 35.7%
COc1c(-c2coc3cc4c(cc3c2=O)CC(OC(C)=O)C(C)(C)O4)ccc2c1C=CC(C)(C)O2 (stereo not given) 14.3%
Cc1ncc2c(c1CNC(=O)c1ccc3c(c1)OCO3)CCN(C(=O)c1ccoc1)C2 19.3%
NC(=O)c1cc[n+](CC2=C(C(=O)O)N3C(=O)[C@@H](NC(=O)[C@@H](c4ccccc4)S(=O)(=O)[O-])[C@H]3SC2)cc1 1.47% [at 75.8 µM]
CC(C)c1ccc2oc3nc(N)c(C(=O)O)cc3c(=O)c2c1 20.1%
O=C(O)/C(=C/c1c(C(=O)O)[nH]c2cc(Cl)cc(Cl)c12)c1ccccc1 29.6% [at 75.8 µM]
COc1ccccc1Oc1coc2cc(O)ccc2c1=O -8.2%
CN(C)c1ccc(CN2CCOc3ccc(CN4CCC(O)(c5cccnc5)CC4)cc3C2)cc1 5.84%
CCn1nc(C)cc1C(=O)NCC1Cc2cccc(-c3cccnc3)c2O1 (stereo not given) 2.62%
CCC1(C2CCN(Cc3cccnc3)CC2)NC(=O)N(CC2COc3ccccc3O2)C1=O (stereo not given) 9.36%
C[N+](C)(C)CCCCCCCCCC[N+](C)(C)C
[O-][N+]12CCCc3cccc(c31)CCC2 24.1%
C[C@@](N)(C(=O)O)c1ccc(C(=O)O)cc1
COc1cc2nc(N(C)CCCNC(=O)C3CCCO3)nc(N)c2cc1OC (stereo not given)
c1ccc(Nc2nc(-c3ccoc3)nc3ccccc23)cc1 0.495%
CCN(CC)c1ccc(C(=C2C=CC(=[N+](CC)CC)C=C2)c2ccccc2)cc1 18.2%
Oc1ccc2ccccc2c1SSc1c(O)ccc2ccccc12 -4.81% [at 75.8 µM]
CCOC(=O)N1CCN(Cc2ccc3c(c2)CN(C(=O)c2ccc4ncccc4c2)CCO3)CC1 9.4%
Clc1ccc(Cn2c(CN3CCCC3)nc3ccccc32)cc1
COc1cc(CN2CCC3(CC2)c2ccccc2[C@@H](NC(=O)c2ccccc2OC)[C@@H]3O)ccc1F 0.285%
COc1ccccc1-c1cncnc1NCCc1cnc[nH]1 -13.3%
O=C(O)/C=C/c1ccc(O)c(O)c1
Cc1cc(CNC(=O)c2cnn(-c3nccc(-c4ccc5c(c4)OCO5)n3)c2C2CC2)on1 18.3%
NC(N)=Nc1ccc(Cl)cc1 11.7%
CC1c2ccccc2CN1NC(=O)c1ccc(Cl)c(S(N)(=O)=O)c1 (stereo not given) 19.4%
[N-]=[N+]=NCC1OC(n2cnc3c(=O)[nH]c(N)nc32)C(O)C1O (stereo not given) 8.36%
COCCNc1ncnc2ccc(-c3ccccc3CN(C)C)cc12 19.2%
O=C(c1ccncc1)N1CCC2(CCCN(Cc3ccncc3)C2)CC1 5.71%
CCCCCCCCCCCCCCCC(=O)OC[C@@H](NC(=O)C(Cl)Cl)[C@H](O)c1ccc([N+](=O)[O-])cc1 18%
CN(CCO)C(=O)c1cn(C2CCN(Cc3ccc(C(F)(F)F)cc3)CC2)nn1 2.05%
N#CCCn1c(=O)c(-c2cccc(C#N)c2)nc2cnc(Oc3cccc(Cl)c3)nc21 -2.41%
OC1(c2cccnc2)CCN(Cc2ccc3c(c2)CN(Cc2ccsc2)CCO3)CC1 5.95%
